The list shows a part of the results.
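Note: jurkat cells carrying a lentiviral library of mutant zinc finger degrons fused to EGFP plus mCherry, mCherry+ cells FACS sorted, degron abundance counted by next-generation sequencing.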

The assay concerns the target no compound (DMSO). In words: log2 fold change of degron read counts, EGFP-low vs EGFP+ sorted cells; higher = lower degron-EGFP level without compound (poor expression or instability). The note with it: compound: DMSO control; 18 h.
Turning to FFCNQCGARFTQKGNLLRHIKL, the “log2 fold change of degron read counts” value turned out to be 0.61. To FRCSVCGHDFTQKGNLLRHIKL belongs -1.12; to FWCNQCGHHFTQKGNLLRHIKL, 1.66; to FYCNQCGADFTQKGNLLRHIKL, -0.467. FNCNQCGAWFTQKGNLLRHIKL: the “log2 fold change of degron read counts” value stood at 0.255. To FCCDQCGASFTQKGNLLRHIKL belongs -3.38; to LMCPICGFFCTQKGNLLRHIKL, 2.11; to LYCPICGFSCTQKGNLLRHIKL, 1.09.

As to FYCNQCGHVFTQKGNLLRHIKL, the “log2 fold change of degron read counts” value came out at 0.738. The same measure for FMCNQCGRRFTQKGNLLRHIKL: -0.186. For the sequence FLCNVCGADFTQKGNLLRHIKL, the “log2 fold change of degron read counts” value is -1.8. To FYCPICGHCFTQKGNLLRHIKL belongs 0.16; to FTCNQCGRCFTQKGNLLRHIKL, -0.341; to FECNQCGHMFTQKGNLLRHIKL, -0.688. In the case of FWCPQCGAKFTQKGNLLRHIKL, the “log2 fold change of degron read counts” value was -0.646. To LGCEICGFFCTQKGNLLRHIKL belongs 1.94; to FTCEICGHEFTQKGNLLRHIKL, -1.53; to FMCNICGASFTQKGNLLRHIKL, -0.905. To FGCNQCGHDFTQKGNLLRHIKL belongs 0.677; to FLCSVCGHRFTQKGNLLRHIKL, -0.352; to FGCPICGHSFTQKGNLLRHIKL, -0.375. To FWCPICGAHFTQKGNLLRHIKL belongs 0.848; to LACEICGFHCTQKGNLLRHIKL, 0.313; to FDCPICGAGFTQKGNLLRHIKL, -0.887.

As for FCCPICGARFTQKGNLLRHIKL, the “log2 fold change of degron read counts” value stood at 0.0499. The same measure for FTCPICGRDFTQKGNLLRHIKL: -0.583; for LYCNQCGFICTQKGNLLRHIKL: 1.83; for FSCEVCGARFTQKGNLLRHIKL: -1.55.

With FLCPICGRPFTQKGNLLRHIKL, the “log2 fold change of degron read counts” value is -0.623. To FACNQCGHYFTQKGNLLRHIKL belongs 0.586; to FDCNICGAAFTQKGNLLRHIKL, -0.75. To FLCPICGRQFTQKGNLLRHIKL belongs -0.0442.
